Results published in the supplement of paper PMC11417369.
± gives the standard deviation of the averaged measurements. The list shows a part of the results.

System: PfAP2-G AP2 domain (GST-tagged)
Test: gcPBM binding intensity (ln(normalized median fluorescence intensity)); higher = stronger DNA binding
Summary of the method: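 Binding of GST-tagged P. falciparum DNA-binding domains, expressed in E. coli and used at about 25 μg on average, was carried out for 1 h in 1× PBS containing 1% milk, 0.2 mg/ml BSA, 0.5% salmon testes DNA and 0.03% Triton X-100. The target was an Agilent 4 × 180k array of primer-extended double-stranded 36-bp intergenic genomic probes plus negative controls, read with Alexa488 anti-GST antibody at 488 nm. Binding intensity is the highest Masliner-normalised natural-log median intensity across replicate spots of either probe orientation.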

Sequence | gcPBM binding intensity (ln)
TATTATAATTAATATACACACGCTTATATATATATA [CACACA_site75] | 10 ± 0.13
TATAAATAAACATTTACACACTCTTATAATAAATAT [CACACA_site1679] | 9.82 ± 0.12
ATTATTATGTATTGCCGTACACATATTATCACAGAA [XGTACX_site3740] | 11.3 ± 0.9
ACTGAAAAAAGAAATACACACATTCTGGATCAGATA [CACACA_site7760] | 9.94 ± 0.057
TCATTCTTGTGTTTATGTACACATATTTATATTGTA [XGTACX_site710] | 11.4 ± 0.88
AACTAATAGTATATTACATGCAAAAGTAAAAGTAAA [TGCATGCA_site411] | 9.945 ± 0.035
CTCACAATACTTACATGTACATATTATATATATAAA [XGTACX_site1880] | 11.4 ± 0.88
GTTGAAATAAAATTAGTGCATATATAAATATATATA | 9.8 ± 0.17
TATATGCAAAATGTCACACATGTGATAAATACATAT [CACACA_site4302] | 10.1 ± 0.11
TTATCATTTTTGGAATGTACTTACATTAAATATTTA [XGTACX_site4034] | 11.1 ± 0.83
ATAATGTATATTATTGCACACATATATAAAATTATG [CACACA_site8280] | 10.2 ± 0.26
TAAATAAATACATACACACACATACCTATATTTATA [CACACA_site7466] | 10 ± 0.13
AATATAAATATAAATATAAATATATATATATATATA [TGCATGCA_negctrl_site603] | 9.89 ± 0.63
TTTTATAAAAACAAAAACAAAGGCACTTTCTAAAGA [XGTACX_negctrl_site130] | 10.3 ± 0.23
TGTATACACATATGTACACACATATAGATGTATATG [CACACA_site7447] | 11.3 ± 0.6
TATGAATTTATCTACAACATTTGAAATAAATTAAAA [CACACA_negctrl_site79] | 9.81 ± 0.12
AAAGACAAAAGGAATTGTACATAATATATAAAATAT [XGTACX_site2923] | 10.8 ± 0.54
AATTTTATTTAAAGTGCATGTAAAATTAAAACTTTT [TGCATGCA_site989] | 10 ± 0.057
ATATAAAATATGAGTAGTACATATTTTCTCATCTTA [XGTACX_site8595] | 11.3 ± 0.73

Sequence | gcPBM binding intensity (ln)
GGGAAACGATTTAATACACACACGTATTATATATAT [CACACA_site1160] | 10.1 ± 0.13
CACAAAAGTAAGCACGCACACACAACATGAAATAAA [CACACA_site7938] | 10.4 ± 0.18
CATTTTTTGTAAAATCGTACATATACATAAAGTGGT [XGTACX_site3423] | 11.3 ± 0.84
TTATAAAAATATTACGCACACACAAACTTATTCATT [CACACA_site1970] | 10.3 ± 0.17
ATATATTTATATTATACACACAAAAATATTTTGTAT [CACACA_site6262] | 9.91 ± 0.099
TATATATATTAATTTATTTATTTGTTTATTTATTTA [CACACA_negctrl_site185] | 9.47 ± 0.014
AATACACACCTGTGGGTGCTTATAATAAGCCACAAA | 10.15 ± 0.099
TATTTTTTTATTTATTGTACTTTAAAAAAAATTAAA [XGTACX_site6167] | 11.3 ± 0.99
TAACAAATATTATTTTGTACATAATATATATATATA [XGTACX_site6898] | 10.6 ± 0.49
AGACTATCATTTTTTTAACACACAAAAAAAATAAAA [CACACA_site9173] | 10.1 ± 0.4
ATCGCATATACATTATATTTTATAATAATTATTTTT [GTGCAC_negctrl_site48] | 9.945 ± 0.021
ATATAATAATATTATACATGCAAAATATGTTCTTCA [TGCATGCA_site115] | 9.795 ± 0.049
AAGAAGAGTTATTGTAGTACATTTTTAAATGTAATA [XGTACX_site7664] | 11.4 ± 0.76
TAATTACCATATGGTACACACATATATATCTGTATA [CACACA_site5849] | 11.1 ± 0.83
AAGAATTATAGAAACACACATACATACAGACATACA [CACACA_site1943] | 10.1 ± 0.26
AAAGATAATAATATGCGTACATAAAAATATATGATA [XGTACX_site6884] | 11.5 ± 0.92
ATAATGGAAAAAAAATATAATAATACGAAATAGGAA [TGCATGCA_negctrl_site64] | 10.01 ± 0.049
TATTTGGGTATTTTTACACACATTAATATATATATA [CACACA_site9114] | 10 ± 0.33
AGTTAAATGAATCAATACATAAATATGTATATATAT [TGCATGCA_negctrl_site539] | 9.595 ± 0.078

Sequence | gcPBM binding intensity (ln)
TTTTTTTAATAAATTTATAACAATATGATAGGTGAC [CACACA_negctrl_site1783] | 10.2 ± 0.34
TGAATCAATTGTTGCTGTACATAAGGTATACAATAA [XGTACX_site5127] | 11 ± 0.59
ATTTGACACGTATATGCACACACCCGTAAGTGTCCA [CACACA_site8891] | 10.5 ± 0.3
TATTAACTCAATAGCGCACACTTTTAATATTTTATA [CACACA_site4973] | 10.14 ± 0.078
AAAAATAAAATAAAATAAAATAAAAATAAAGAAAAA [CACACA_negctrl_site808] | 9.39 ± 0.16
ACAAATAAAAAAATTACACACATATATAATATATAT [CACACA_site1361] | 9.71 ± 0.11
AGTAGTCTGGAGAAAAGTACACAGTATCTGGTAACA [XGTACX_site2034] | 11.5 ± 1
TTAATTCTATACATAAATTATGTTTACATAAAGAAT [GTGCAC_negctrl_site246] | 9.84 ± 0.099
TTTCTTTATTTATAATAATTTTTTATTAAAAATAGA [CACACA_negctrl_site1610] | 9.55 ± 0.13
AGTGCATAATATTTATGTACGTATCACATATATTTT [XGTACX_site5166] | 11.3 ± 0.84
AATAAATGTCTGTTAATGCACACGATATGTCTATAT [CACACA_site2351] | 10.03 ± 0.099
TTATAAATTTTTAATAGTACATAAAATTAAAGGTAA [XGTACX_site760] | 11.2 ± 0.67
ATGTGATAATTTAGGAGTACTGTCATAAGCATTTCT [XGTACX_site3091] | 11.4 ± 0.95
GATATATTTTGTTATGTAGATGTTGGTAGGAATTTT [GTGCAC_negctrl_site485] | 9.945 ± 0.049
GTATTTATATGATTAACACACATATGTGGATTAATA [CACACA_site1315] | 9.99 ± 0.11
ATGTATCGTAACAAATGTACAAGAGGATGTTTAGAC [XGTACX_site3355] | 11.1 ± 0.71
TATATAACTACAAGAACACACATATAAATATAAATA [CACACA_site7210] | 9.955 ± 0.021
GTAATTAAGATATATACACACAAAGGCTATTAAATA [CACACA_site6604] | 9.985 ± 0.021
